Only a part is listed here, and it is no random draw. The list includes weakly bound sequences.

Common to all, as to assay: protein-binding microarray (PBM)
Holding throughout (conditions): PBM: ~300 nM protein, 6 mM HEPES pH 7.8, 80 mM KCl, 0.5 mM EDTA, 0.5 mM EGTA, 6% glycerol, 35 ng/ul poly-dIdC, 1% milk, 1 h, room temperature; Ap Aiptasia and Nv Nematostella (sea anemones) / Co Capsaspora / Aq Amphimedon (sponge) / Dm Drosophila / Hu human; RHD is the Rel homology domain; high values mean tight binding; most listed sequences are background and not binding sites; double strand, one strand shown

One assay deals with T1, GST-Ap-NF-kB RHD (UniProt A0A913YAJ5).
T1 sequence: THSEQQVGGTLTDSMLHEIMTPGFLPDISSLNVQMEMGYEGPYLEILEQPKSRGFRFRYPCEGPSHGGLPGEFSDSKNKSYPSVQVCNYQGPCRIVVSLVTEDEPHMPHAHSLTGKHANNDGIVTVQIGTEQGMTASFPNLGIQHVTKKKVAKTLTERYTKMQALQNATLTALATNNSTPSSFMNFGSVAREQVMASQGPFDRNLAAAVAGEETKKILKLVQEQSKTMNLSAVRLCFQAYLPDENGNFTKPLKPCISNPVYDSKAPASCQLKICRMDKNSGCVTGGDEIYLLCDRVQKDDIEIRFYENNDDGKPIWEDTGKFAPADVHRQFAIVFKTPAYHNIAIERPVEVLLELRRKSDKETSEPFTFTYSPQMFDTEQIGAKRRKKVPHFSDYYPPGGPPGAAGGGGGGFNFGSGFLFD

For assay [1], the target named is T2, GST-Nv-NF-kB (Cys allele) (UniProt E5G601).
T2 sequence: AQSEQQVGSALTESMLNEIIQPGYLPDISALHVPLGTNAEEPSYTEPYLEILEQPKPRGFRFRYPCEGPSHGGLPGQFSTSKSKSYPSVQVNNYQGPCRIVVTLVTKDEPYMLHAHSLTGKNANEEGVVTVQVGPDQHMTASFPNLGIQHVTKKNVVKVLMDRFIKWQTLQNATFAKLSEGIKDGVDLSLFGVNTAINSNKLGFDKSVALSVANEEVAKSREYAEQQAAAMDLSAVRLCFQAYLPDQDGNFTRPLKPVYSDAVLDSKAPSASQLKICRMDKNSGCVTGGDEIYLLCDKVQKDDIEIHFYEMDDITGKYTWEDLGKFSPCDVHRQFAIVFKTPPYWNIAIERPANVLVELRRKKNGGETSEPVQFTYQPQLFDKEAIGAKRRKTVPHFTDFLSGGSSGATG

Another assay deals with T3, GST-Co-NF-kB (UniProt F1ARL5).
T3 sequence: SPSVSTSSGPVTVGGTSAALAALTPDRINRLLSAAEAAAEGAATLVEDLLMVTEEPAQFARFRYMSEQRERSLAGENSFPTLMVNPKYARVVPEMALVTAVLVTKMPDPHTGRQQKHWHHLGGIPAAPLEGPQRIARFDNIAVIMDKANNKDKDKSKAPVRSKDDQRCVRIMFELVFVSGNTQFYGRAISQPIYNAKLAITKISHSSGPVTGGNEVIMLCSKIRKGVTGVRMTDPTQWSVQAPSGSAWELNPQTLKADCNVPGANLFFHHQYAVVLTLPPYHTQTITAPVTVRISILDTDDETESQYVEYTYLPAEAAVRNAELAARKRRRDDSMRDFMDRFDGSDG

The target of a further assay is T4, GST-Dm-Relish (UniProt Q94527).
T4 sequence: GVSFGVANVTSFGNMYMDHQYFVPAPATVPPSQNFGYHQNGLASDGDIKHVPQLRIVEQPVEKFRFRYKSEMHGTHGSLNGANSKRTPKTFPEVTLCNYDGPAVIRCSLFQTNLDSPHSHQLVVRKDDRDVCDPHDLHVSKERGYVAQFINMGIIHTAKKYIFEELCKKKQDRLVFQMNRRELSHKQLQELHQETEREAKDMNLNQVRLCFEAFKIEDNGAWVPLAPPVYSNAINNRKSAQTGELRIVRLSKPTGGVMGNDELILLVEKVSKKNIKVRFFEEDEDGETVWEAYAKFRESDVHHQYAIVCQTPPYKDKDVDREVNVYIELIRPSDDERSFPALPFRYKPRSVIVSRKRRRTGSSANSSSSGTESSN

A further assay has as its target T5, GST-Aq-NF-kB (UniProt A9Y5G7).
T5 sequence: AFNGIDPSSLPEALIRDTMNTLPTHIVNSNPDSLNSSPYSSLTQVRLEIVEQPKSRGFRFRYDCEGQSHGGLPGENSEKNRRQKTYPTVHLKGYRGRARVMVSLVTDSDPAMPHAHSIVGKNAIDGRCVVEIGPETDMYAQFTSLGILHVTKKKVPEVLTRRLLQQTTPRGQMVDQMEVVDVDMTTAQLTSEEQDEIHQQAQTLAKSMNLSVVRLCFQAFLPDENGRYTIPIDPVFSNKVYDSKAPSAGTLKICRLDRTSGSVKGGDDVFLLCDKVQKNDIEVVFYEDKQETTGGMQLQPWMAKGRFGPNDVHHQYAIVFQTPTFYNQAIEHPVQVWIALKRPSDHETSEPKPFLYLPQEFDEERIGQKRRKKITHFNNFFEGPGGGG

“CCGATTAACATCACCTGAACTATTGATGTTAATCGGGTCTTGATTCGCTTGACGCTGCTG”: the binding signal is 0.435 z-score with GST-Ap-NF-kB RHD; 0.485 z-score in assay [1]; 0.612 z-score with GST-Co-NF-kB; 0.149 z-score in the assay with GST-Dm-Relish; 0.394 z-score in the assay with GST-Aq-NF-kB.
For “CCGATTAACATCACGGAAATGCCTGATGTTAATCGGGTCTTGATTCGCTTGACGCTGCTG” the same measures were 0.336 z-score, 0.0236 z-score, 0.425 z-score, -0.1 z-score and 1.48 z-score.
In the same order, the values of “CCGATTAACATCATAACTTTGGCTGATGTTAATCGGGTCTTGATTCGCTTGACGCTGCTG” are -0.501 z-score, -0.906 z-score, -0.23 z-score, -0.443 z-score and -0.544 z-score.
With “CCGATTAACATCACCCTCCAATTTGATGTTAATCGGGTCTTGATTCGCTTGACGCTGCTG”, the binding signal with GST-Ap-NF-kB RHD turned out to be 0.621 z-score; in assay [1], 0.127 z-score; in the assay with GST-Co-NF-kB, 0.765 z-score; in the assay with GST-Dm-Relish it was 0.384 z-score; with GST-Aq-NF-kB it was 0.597 z-score.
For “CCGATTAACATCAGCTTATCAACTGATGTTAATCGGGTCTTGATTCGCTTGACGCTGCTG” the same measures were -0.723 z-score, -0.14 z-score, -0.863 z-score, -0.743 z-score and -0.533 z-score.
For “CCGATTAACATCATCGGATAACATGATGTTAATCGGGTCTTGATTCGCTTGACGCTGCTG” the same measures were -0.756 z-score, 0.0981 z-score, -0.134 z-score, -0.014 z-score and -0.316 z-score.
As for “CCGATTAACATCAAACATTATCTTGATGTTAATCGGGTCTTGATTCGCTTGACGCTGCTG”, the binding signal was -0.485 z-score in the assay with GST-Ap-NF-kB RHD; -0.348 z-score in assay [1]; 0.26 z-score in the assay with GST-Co-NF-kB; 0.0169 z-score in the assay with GST-Dm-Relish; -0.13 z-score in the assay with GST-Aq-NF-kB.
In the same order, the values of “CCGATTAACATCAAGTTGTACAATGATGTTAATCGGGTCTTGATTCGCTTGACGCTGCTG” are -0.665 z-score, -0.231 z-score, -0.652 z-score, -0.36 z-score and -0.257 z-score.
With “CCGATTAACATCAGCTTTCTGACTGATGTTAATCGGGTCTTGATTCGCTTGACGCTGCTG”, the binding signal is -0.778 z-score with GST-Ap-NF-kB RHD; 0.45 z-score in assay [1]; -1.61 z-score with GST-Co-NF-kB; -1.07 z-score with GST-Dm-Relish; -0.518 z-score with GST-Aq-NF-kB.
As for “CCGATTAACATCAAAGTCTCCAATGATGTTAATCGGGTCTTGATTCGCTTGACGCTGCTG”, the binding signal was -0.536 z-score with GST-Ap-NF-kB RHD; -0.0215 z-score in assay [1]; 0.00406 z-score with GST-Co-NF-kB; -0.682 z-score in the assay with GST-Dm-Relish; -0.353 z-score in the assay with GST-Aq-NF-kB.
In the same order, the values of “CCGATTAACATCAAGCACATGATTGATGTTAATCGGGTCTTGATTCGCTTGACGCTGCTG” are -0.792 z-score, -0.202 z-score, -1.27 z-score, -0.448 z-score and -0.635 z-score.
For “CCGATTAACATCACGTGTCACGCTGATGTTAATCGGGTCTTGATTCGCTTGACGCTGCTG” the same measures were -0.483 z-score, 0.234 z-score, -1.1 z-score, -0.785 z-score and -0.601 z-score.
For “CCGATTAACATCATGTCTACCAGTGATGTTAATCGGGTCTTGATTCGCTTGACGCTGCTG” the same measures were -0.324 z-score, -1.02 z-score, 0.413 z-score, 0.0303 z-score and -0.315 z-score.
